B1: OR4K15 (parent)
chain: GUUAACGGUCAUAGGCCAUGGAAACUAGGAGCACCAUUUCGCUGCCAGUGAAGAAAUGAACAAAGAAAAUCUGGGCCAGGCAGGCAUCAAAAGAAAUAGUCUUGCGCUCAACCAGAAAGUCUGUAAUCAUUUUAAGGGUA

The source gives no read counts; variants with many changes may rest on few reads.

The text below walks through data of the RNAGym collection of RNA variant scans (doi:10.7554/elife.90254).

In this data set the parent is B1. The data set is described as follows: self-cleavage, relative activity (ratio to wild type); higher = more cleavage; in vitro, sequencing; the parent is a self-cleaving ribozyme.
As for A94G U108C U122C, the self-cleavage was determined as 0.01. Turning to U108C G137C G138U, the self-cleavage is 0.03. For A94G U102C G104A U127C the value was 0.01; for A86G A125G A140G, 0.75; for U97C A98G U131C, 0.79.

As to A98U A114G U127A A129G, the self-cleavage turned out to be 0.04. For U97A A116G U127C the value was 0.17; for U87C A92G A116G, 0.54.

In the case of U87C A95U A117U, the self-cleavage was 0.95.

For U87C A117G A134G, the self-cleavage amounted to 1.67. For A94G A110G U127C the value was 0.08; for A92G U102C U120C, 2.38; for A91U A96G G104A, 0.04. A116G A126G U132C: the self-cleavage was found to be 0.25. For A94G A96U A126U U131C the value was 0.62; for A92G U103C U122A U130C, 0.37; for A90G A118G U120C U132C, 0.01. For A116U A117G U124C U130C the value was 0.02; for A86G A118G U127C, 0.26. The value for A92G U132C A134U was 1.08; that for A89G A117U U122A U130C was 0.65. Regarding U87C U132A A140U, the self-cleavage was 1.66. For A89U C113A A116G the value was 0.06; for A94U U120C U132C, 1.12. The value for U87C U120C U124C U139C was 0.27; that for U120C U122C U130C was 0.4.

Turning to A86G U87A A116G A129G, the self-cleavage was determined as 0.31. For U102G G104A U130C the value was 0; for A111U U120C U130C, 0.01. Regarding A91G U102C A116G U131C, the self-cleavage was 0.7. For A110G U131C G137U the value was 0.13. For A91G A98G U100C the value was 1.64. The value for A86U U102C A125G was 1.15; that for A91U A94G U97C U122A was 1.23; that for A98G U130C U133G was 0.06. On to U102A A110U U130C, for which the self-cleavage was 0.43. The value for U87C A98U A114G was 0.45; that for C113U A117G U131A was 0.01; that for A92G A117U U133A was 0.77.

Regarding A94G U127C G137A, the self-cleavage amounted to 1.17. On to A126G U127C U132A, for which the self-cleavage worked out at 1.01. For the variant A90G U120C A126G, the self-cleavage is 0.7. In the case of U102C U108C U131C, the self-cleavage turned out to be 0.01. The value for A94C A95G U139C was 1.46; that for A91G U132C A134G was 0.5. With U97A A126G U127C, the self-cleavage stood at 1.41. U87A U103C A114G: the self-cleavage amounted to 0.22. Turning to A86G U97A A125G, the self-cleavage was 0.55. Regarding U103C U108C U139A, the self-cleavage is 0. A89G A118G U127C: the self-cleavage was 0.33. The value for A90G U100C U130C was 2.77; that for A91G U108A U127C was 0.02. For A91G A92G A110G the value was 0.11; for A90G A94G A114G, 0.12; for A89U A92G A96G U102C A129G U130C, 0.89. On to U87A A110G A118G, for which the self-cleavage is 0.19. The value for A116G U120C U139C was 0.4. On to A94G A98G U108C A111C A118G, for which the self-cleavage came to 0. A114G A125C U127C: the self-cleavage turned out to be 0.09.

Take A116G U122C U131G G138A: the self-cleavage came to 0.71. The value for A116C U131C A135G was 0.03; that for A96G U100A U122C U127A was 1.16; that for A94U A111G A140U was 0.02. With A90G U122C U127A, the self-cleavage is 0.76.

Regarding U87C U127C A140G, the self-cleavage is 0.64. For A92G U102C A116G, the self-cleavage came out at 1.

For the variant U102A A116U A129G, the self-cleavage is 0.03.

Regarding A90G A95G U102C, the self-cleavage was found to be 2.51.

Regarding U87A U103C U124A, the self-cleavage stood at 0.8.

For A90G A92G U108C, the self-cleavage was 0.01. As to A111G U122C U139C, the self-cleavage worked out at 0.01. The value for U97A U100C A140U was 1.65; that for A95G U102C U130C was 2.43; that for A89G A96G U108C U132C was 0.02.

As for A110G A114G A126G, the self-cleavage is 0.07. For U102G A118G U122C the value was 0.26.

As to A95G G106U A114U, the self-cleavage was 0.02. The value for U87C A116G U132C was 0.35. Regarding A96G U122C U130C, the self-cleavage came to 1.21. For U87C U100C U139C the value was 2.12; for A94G A110G A126G, 0.09. For A91G G137A A140C the value was 1.56.

Consider U87C U108C G115U, for which the self-cleavage was 0.

In the case of A94G U103C U132A, the self-cleavage worked out at 0.32. For C113U A116G U122C G138A the value was 0.01. Consider U87C A89U U122C U130G, for which the self-cleavage turned out to be 0.32. The value for A90G A91G U103A was 0.67. In the case of U100G U108G A111G A114G U122C, the self-cleavage was 0.

Turning to A91G A96G C101U C105U, the self-cleavage stood at 0.01. For A86G U130C U139C the value was 1.11; for A89G U100A U103C, 0.17; for U97C A117G G136U, 2.18.

Turning to A111G A114G U127C, the self-cleavage is 0.01. For A86G A110G U127C, the self-cleavage was determined as 0.09. For A110G A134C A135G the value was 0.15; for U102C U130C U133G, 2.48; for U108G U120C U124A, 0. As for U87C U130G U131C, the self-cleavage amounted to 0.42.

With A111G A117G U124C A126G, the self-cleavage came to 0.01. For U87C A91G U132C U139C the value was 0.44. The value for A89G A117G C121A was 2.78; that for U102C U103A A129G was 0.08; that for A89G A116G A118G was 0.13. For U108A A110C A118G the value was 0. Regarding U102C U108C A118U U132C, the self-cleavage turned out to be 0. For A92G A96U U120C the value was 1.24; for A89G C113U A134U, 0.06; for A110G A118G U122C, 0.13. For A86U A111G U133C, the self-cleavage was 0.02. The value for A92G A117G U131C was 1.33; that for A89G A94G U130C was 1.19.

For the variant A92G A94G U108C U127A, the self-cleavage is 0.03. For A94G A95G U130C the value was 0.37. For A90G U100C A116U A140G the value was 0.56; for A111G A118G U120C, 0.01; for A92G U100C A140G, 2.71. The value for A89U U120A A135C was 2.25.

Take A90U A94U U131C: the self-cleavage is 2.04. Regarding A91G G99A U124C, the self-cleavage stood at 0.07. For A92G A95G A126G the value was 2.04. The value for A92G U103C U131C was 0.19.

Regarding U87C A89U U108C C128U, the self-cleavage was 0.01.

Turning to A90G A96G U97C, the self-cleavage turned out to be 0.29.

As to U87C U108C U127C, the self-cleavage turned out to be 0.

For the variant A89G U108C U127C, the self-cleavage came to 0.

Regarding A90G U108A A116G U131C, the self-cleavage worked out at 0. The value for A96G A126G U132G was 0.64; that for A92G U122C A126G was 0.97. The value for A118G U122C U133C was 1.04; that for A94G C105U A125G was 0.02. For U122A U127C A129U the value was 0.36; for A118G U120A A126C, 1.62; for U102C U103C A111G A125G, 0.01. On to A86G A92G U100C, for which the self-cleavage is 2.27. The value for A94G U102C A126C was 2.27; that for A91G U100A A125C was 0.2; that for C109A A114C U127C was 0.01. Take C88U A110G A111G: the self-cleavage was 0.01. For U102C U130C U131C the value was 1.82; for U103C A114G U132C, 0.04; for A117G U122C U127C, 0.79.

Regarding A110U A117C G138A, the self-cleavage came to 0.35. The value for A90G U97C C109U was 0.22; that for U87C U97C A140G was 0; that for A114C U127C U130C A134G was 0.

Take A96G A134G A135G: the self-cleavage was determined as 1.49.

Turning to U87A A90U A126U, the self-cleavage came to 1.43. As for A86G A96G U132C, the self-cleavage was determined as 1.33. The value for A98G U127C A134G was 0.22; that for A89G A114C A140G was 0.01. For the variant C113U A114C U132C, the self-cleavage was determined as 0. The value for U87C U122C U132A was 1.01.

Consider U87A A94U U97C U139A, for which the self-cleavage was determined as 1.13. A96G U103C A111U U122C: the self-cleavage was 0.06. The value for U103A A116G U131A was 0.03; that for A86G C101U U132G A134G was 0.02.

Regarding U97C A118G A126G, the self-cleavage is 0.77.

A94G A110G U120A: the self-cleavage came out at 0.27.
